The chains are these.
B1: LINE1-full (parent)
chain: UACGUAGGUGGUUUUCCCCUGAUAGUGCUAAGGGGGCCUGGAAGUUUGGACUGGGCAGAGCUCAACACAGCGUGGCAAAGUGGCUGUGGCUAGACUGCCUCUCUGGAUUCCUCGUCACUCAGCAGGGCAUCUCUGAGAGAAAUGCC

Among the data in the RNAGym collection of RNA variant scans (doi:10.7554/elife.90254) are self-cleavage values, retold here.

Read counts are not given, so values of variants with three or more changes are uncertain.

The variants in this series derive from B1. Kind of series: self-cleavage, relative activity (ratio to wild type); higher = more cleavage; in vitro, sequencing; the parent is a self-cleaving ribozyme.
As for G55A C99G U132C, the self-cleavage was 0.04.

For A50G A69G C90U U112C, the self-cleavage turned out to be 0.03.

As for U52C A59G G105A U143C, the self-cleavage worked out at 0.07.

Turning to A50G U96A U130C, the self-cleavage turned out to be 0.

Take U52C G122A A140G: the self-cleavage is 1.17.

As for G48A A64G G137A, the self-cleavage stood at 0.16.

Regarding U52A A59G U134G, the self-cleavage is 0.14.

Take G54A A64G U85A: the self-cleavage came out at 0.03.

Regarding U52A G82U U87C U109A U130G, the self-cleavage worked out at 0.19.

With C56U A136U A138G, the self-cleavage was 0.33.

Turning to C56U C98U U100G, the self-cleavage stood at 0.05.

As for G49U C56U A57C, the self-cleavage stood at 0.03.

Turning to U52A A67U U100A, the self-cleavage turned out to be 0.08.

Regarding A50U A59G A69G U112C, the self-cleavage amounted to 0.

As to G54A U96C U143A, the self-cleavage was 0.02.

Consider G54A A67U U132C, for which the self-cleavage amounted to 0.04.

With A50G U100C A124U U132C, the self-cleavage worked out at 2.3.

For U52C G75C A129U A142G, the self-cleavage worked out at 0.

As to U52C A64U U112C A142G, the self-cleavage is 0.36.

A50G U104A U109A: the self-cleavage turned out to be 0.66.

Turning to A50G C76U A142G, the self-cleavage came to 1.18.

In the case of C51U A94G A138G, the self-cleavage was determined as 0.1.

Regarding A50G U62A U132A U143C, the self-cleavage is 0.14.

On to U47G G93U U112A A138U, for which the self-cleavage was determined as 0.02.

On to U47G U91A A140G, for which the self-cleavage came to 0.48.

Consider C51U G80U U85C U102C A138G, for which the self-cleavage stood at 0.

Consider U52A U102A U109A U143A, for which the self-cleavage is 1.31.

As to U52A U73C U130C A138U, the self-cleavage was determined as 2.04.

For the variant G48U A69G C120A, the self-cleavage is 0.69.

For the variant G54A U73C U104G A138G, the self-cleavage was 0.38.

As for A50U A64U U100C, the self-cleavage worked out at 0.51.

For the variant U52A A77U U85A A129U, the self-cleavage came to 0.06.

In the case of A50G U52C A65G A136G, the self-cleavage came to 0.

Take C56U A77G G126A: the self-cleavage amounted to 0.25.

Turning to U52C A69U A78G, the self-cleavage was 0.12.

C51U A69G U115A G144A: the self-cleavage is 1.2.

Take U52C A67G U132G: the self-cleavage came out at 1.15.

For the variant G53A U104C A107G A121C A138G, the self-cleavage was 1.53.

Turning to G53U A107G A138G, the self-cleavage was 1.36.

For G53A A57G U73C A138G U143C, the self-cleavage is 1.08.

Turning to A50G C66U G82A U119C, the self-cleavage was determined as 0.

In the case of A57G A59G G86A U100G U115A, the self-cleavage was 0.

For U52A U62C A77G A121G, the self-cleavage worked out at 0.

U52C U96A U115C A121G U143C: the self-cleavage was determined as 0.

As for U52A A79G A140G, the self-cleavage amounted to 0.99.

As for A50U C90U A138U, the self-cleavage came to 0.04.

U52C G75C U96C A142G: the self-cleavage turned out to be 0.

On to A50G A78G U108A U132C, for which the self-cleavage was determined as 0.73.

With A50U U100C A124G, the self-cleavage worked out at 1.56.

Turning to G53U A59G A138U, the self-cleavage came to 0.05.

Turning to G49A U102C U115C, the self-cleavage came out at 0.28.

As to G53U U100C G106U C131U, the self-cleavage stood at 1.58.

Regarding G54U C71U U81C U85A, the self-cleavage amounted to 0.03.

Regarding C56U C98A A136G A140G, the self-cleavage was determined as 0.05.

As for U52A A94C U132C, the self-cleavage worked out at 0.03.

Regarding G54U U62A A78G U81A A117U, the self-cleavage was determined as 0.03.

Regarding U52G C71A U109C, the self-cleavage worked out at 0.35.

Consider G54U A57G A65U A79G G126A, for which the self-cleavage worked out at 0.

Turning to A50G G54A C84A, the self-cleavage stood at 0.02.

As to U47G U62C U102C, the self-cleavage was 0.06.

As to A50G A57G A69G U81A U132C, the self-cleavage is 0.

Consider U52C A77U A138U, for which the self-cleavage amounted to 1.77.

Consider U52A A138G A142U, for which the self-cleavage was 1.29.

As to U52A U102C U119C, the self-cleavage stood at 0.48.

As to U52A C56U G74A, the self-cleavage turned out to be 0.12.

For the variant A57G A65G U112C A138C, the self-cleavage came out at 0.

With G53C G72A U100C A117C G125U A136G, the self-cleavage came out at 1.87.

In the case of U52A A69G C98U, the self-cleavage amounted to 0.02.

Regarding G55U A65G G88A U100C U115C A140G, the self-cleavage stood at 0.03.

On to G55A G72A A92C A121G, for which the self-cleavage was 0.04.

For the variant U52C A138G A142G, the self-cleavage turned out to be 1.44.

In the case of U52C U62C G72A C95U A121U, the self-cleavage was determined as 0.

Take U52A U109A U115A: the self-cleavage is 1.29.

In the case of A50G A57U C66U A129U, the self-cleavage was determined as 0.05.

For the variant U52A A138G A140G, the self-cleavage is 1.69.

With C56U A79U U100C U115C, the self-cleavage worked out at 0.96.

As to G48U A92G U102A A138G, the self-cleavage was determined as 0.06.

Regarding U52G A67G U73A U100C A117U U119A, the self-cleavage stood at 2.04.

In the case of U52A A107U U132C, the self-cleavage came to 0.66.

Take G49A U130C A141G: the self-cleavage was found to be 0.69.

On to A50G C90G G93C U130C, for which the self-cleavage is 0.

Consider C56U A67G U81G C133A, for which the self-cleavage stood at 0.05.

In the case of U52A A129U U132A, the self-cleavage stood at 1.61.

Turning to U52C A59G C113U, the self-cleavage turned out to be 0.09.

On to A50G C120U A136G A141G, for which the self-cleavage was determined as 1.35.

Regarding A50G A57U C118U, the self-cleavage came to 0.09.

C51U U112C A138G: the self-cleavage was determined as 1.6.

As for G54A A65G A92G A136G, the self-cleavage came to 0.13.

As for A50G G80A A142G, the self-cleavage was determined as 1.07.

Turning to G49A A78G U85C, the self-cleavage was 0.03.

As to G48C U62G A77G, the self-cleavage is 0.26.

Consider A50G A124U U132C, for which the self-cleavage was 1.34.

For U52G A77G U134C, the self-cleavage was 2.12.

As to A50G U52A U73A A117G, the self-cleavage turned out to be 1.53.

Regarding U52A A67C A138G, the self-cleavage was determined as 0.05.

For G55U U62C U102C A117G G126A, the self-cleavage amounted to 0.02.

For the variant A50U A138G A141G, the self-cleavage stood at 0.85.

For G53U G83A A92G A107G U130C, the self-cleavage was 0.

Regarding A50G A79G A129G G144A, the self-cleavage was determined as 0.

On to A50G G106U U130C, for which the self-cleavage came out at 0.71.

As for U52A G54A U115C A121G A138G, the self-cleavage came to 0.97.

Regarding A50G U62C U73A U100C, the self-cleavage came out at 0.

Turning to A50G A64G A136G, the self-cleavage came out at 0.

On to G53A G88A U104C U130A, for which the self-cleavage was 0.02.

Regarding G48A G89C U130C A138U, the self-cleavage turned out to be 0.01.

As to A50U A59U U96C, the self-cleavage was determined as 0.03.

On to A50U U62C G82A, for which the self-cleavage came to 0.03.

As to A50U U102A U104A A117C A121G A124G, the self-cleavage is 1.53.

In the case of U52C A117C A140G, the self-cleavage turned out to be 1.82.

On to A50U G114A A117G, for which the self-cleavage was found to be 1.16.

Turning to G53A U104A U134C, the self-cleavage came out at 1.24.

In the case of U52C U85A A92U A107U U132A A142G, the self-cleavage is 0.07.

Consider A57G A65G U73A, for which the self-cleavage is 0.06.

G49U A59G A77U: the self-cleavage is 0.02.

For G49A A67G A69U, the self-cleavage is 0.

In the case of G48A U108C C116U A140G, the self-cleavage came out at 1.84.

With A57C A69G A136U, the self-cleavage was found to be 0.

Consider U52C U96C U115C, for which the self-cleavage was found to be 0.

As to U52A A67U A77C A78G A136G, the self-cleavage was determined as 0.14.

On to U52A U62C G72A U143C, for which the self-cleavage turned out to be 0.04.

Regarding A50G C84U U132C, the self-cleavage came to 0.16.

For G49A G53A A59C U87C U102C, the self-cleavage was found to be 0.

For the variant U52A U85C C113U, the self-cleavage came out at 0.11.

Consider A50C U81C A138G, for which the self-cleavage is 1.53.

As for A50G G54A C71A, the self-cleavage worked out at 0.06.

On to U52C G105A U112C C146U, for which the self-cleavage amounted to 0.94.

As for U52C A129G A141G, the self-cleavage was 1.11.

As for G53A A64U U81G A117U, the self-cleavage came to 0.45.

Consider A50G C101U A138G, for which the self-cleavage turned out to be 1.29.

With C56U A136G A142G, the self-cleavage came out at 0.34.

With A50U C63U A129G, the self-cleavage is 0.31.

On to G49U A59G U115C A140G, for which the self-cleavage was 0.07.

As for A50G A117U A142G, the self-cleavage amounted to 0.64.

Regarding A50G G53U A121U, the self-cleavage is 0.64.

For the variant A50U U62C U73C U91A, the self-cleavage stood at 0.12.

In the case of U52C A59U A94G, the self-cleavage came out at 2.51.

U52C C56A A77G U87G: the self-cleavage was 0.03.

As for A57G A64G A79U, the self-cleavage was found to be 0.39.

With A50G A77U U132C, the self-cleavage is 1.

With U52G A107U U112C U119A A141U, the self-cleavage worked out at 0.39.

For the variant U52C U91C U112A, the self-cleavage is 0.89.

Take U52A U85A G106A A121U: the self-cleavage is 0.07.

As to G55A U96A U119A, the self-cleavage was found to be 0.03.

In the case of C56A A69G U143C C146U, the self-cleavage worked out at 0.05.

Turning to U52A A67G U87A, the self-cleavage was 0.2.

Turning to A50G A117G U143A, the self-cleavage is 0.97.

As for A50G U81A U102C U112C A140G, the self-cleavage worked out at 2.53.

For C51A A77G A141G, the self-cleavage was 2.33.

For the variant G54U A67U A124G, the self-cleavage stood at 0.04.

As for C51U G75C A79G U109A U132A, the self-cleavage is 0.48.

As to G48U G60U U108C A141G, the self-cleavage was 0.04.

Consider U52C U102C U134C, for which the self-cleavage was 0.

Regarding G53U U109C G122A, the self-cleavage is 1.55.

For G53A U104A A121C A136G C145U, the self-cleavage came to 1.56.

G55A U108C A121G: the self-cleavage is 0.73.

In the case of U52C U100C U102C, the self-cleavage turned out to be 2.57.

In the case of G49U A64U U134A, the self-cleavage came to 0.17.

In the case of A50G C68U A107G A121G, the self-cleavage came out at 0.

With G55U G74A U87C A117G, the self-cleavage was found to be 0.03.

A50G U73A A79G: the self-cleavage was found to be 0.47.

Consider G53U C120A U130C A140G, for which the self-cleavage came to 1.84.

In the case of U52C A77U U119C U132C, the self-cleavage was determined as 2.57.

Take G49A A69G C84U U132A: the self-cleavage amounted to 0.03.

With G49A A57G A69C A138G, the self-cleavage turned out to be 0.02.

For U52A A65G A142G, the self-cleavage stood at 0.09.

Take U52C U87A A136G: the self-cleavage was found to be 0.07.

For the variant U52A U85C A140G, the self-cleavage turned out to be 0.26.
